Results as given in PMC4336329 (PLoS ONE, 2015).
Hit rate of the full screen: of about 310,000 compounds, about 14,000 (4.5%) showed an effect of 50% or more. Effects have a minus sign here. The list shows a part of the results.

Molecular target: human ether-à-go-go-related gene (hERG) potassium channel (human, UniProt Q12809)
Assay: primary screen, population patch clamp on CHO cells stably expressing hERG
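Note: peak tail current of the secondary pulse compared with the same well before compound.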

Sequence of human ether-à-go-go-related gene (hERG) potassium channel (Q12809 whole entry, looked up): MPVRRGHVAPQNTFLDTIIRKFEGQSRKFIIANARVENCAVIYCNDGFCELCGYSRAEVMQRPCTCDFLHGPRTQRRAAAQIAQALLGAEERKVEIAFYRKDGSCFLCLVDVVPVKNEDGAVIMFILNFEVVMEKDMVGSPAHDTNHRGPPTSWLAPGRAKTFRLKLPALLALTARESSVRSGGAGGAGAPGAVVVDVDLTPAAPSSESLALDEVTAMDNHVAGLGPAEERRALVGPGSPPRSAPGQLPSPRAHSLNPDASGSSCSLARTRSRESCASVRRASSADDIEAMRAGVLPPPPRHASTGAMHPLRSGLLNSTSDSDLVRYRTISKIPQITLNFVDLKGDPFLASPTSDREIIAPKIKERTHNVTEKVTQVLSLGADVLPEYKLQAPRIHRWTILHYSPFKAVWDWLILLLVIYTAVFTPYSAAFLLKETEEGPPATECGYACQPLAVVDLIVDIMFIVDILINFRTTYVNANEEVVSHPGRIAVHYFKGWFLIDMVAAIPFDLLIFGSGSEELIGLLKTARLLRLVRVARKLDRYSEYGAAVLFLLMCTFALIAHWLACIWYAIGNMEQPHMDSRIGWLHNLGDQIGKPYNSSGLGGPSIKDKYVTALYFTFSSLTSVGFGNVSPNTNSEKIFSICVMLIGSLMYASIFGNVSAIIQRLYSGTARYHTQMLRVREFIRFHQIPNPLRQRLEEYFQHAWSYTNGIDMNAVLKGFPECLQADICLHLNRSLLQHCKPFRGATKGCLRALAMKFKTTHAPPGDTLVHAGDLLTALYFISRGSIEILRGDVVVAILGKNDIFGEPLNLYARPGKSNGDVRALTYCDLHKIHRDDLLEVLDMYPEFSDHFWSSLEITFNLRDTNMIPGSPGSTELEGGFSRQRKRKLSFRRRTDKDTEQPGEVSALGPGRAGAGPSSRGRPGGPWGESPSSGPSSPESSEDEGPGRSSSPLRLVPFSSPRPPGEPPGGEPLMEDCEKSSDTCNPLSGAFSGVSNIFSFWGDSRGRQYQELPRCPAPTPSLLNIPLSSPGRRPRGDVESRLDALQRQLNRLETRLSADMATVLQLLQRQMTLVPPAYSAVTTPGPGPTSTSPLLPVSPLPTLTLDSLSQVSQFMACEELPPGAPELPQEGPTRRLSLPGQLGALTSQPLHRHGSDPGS

SMILES	hERG current change (%, negative = inhibition) at 10uM [%]
CN(C)CCN1C(=O)c2oc3ccc(Cl)cc3c(=O)c2C1c1cccc(Br)c1 (centres unmarked)	-45.2
CC(=O)Nc1ccc(-c2csc(NNC(=O)c3ccccc3)n2)cc1	24.7
O=c1[nH]c2c(oc3ccccc32)c(=O)n1Cc1ccccc1	13.8
Cc1ccc(NC(=O)c2cc(=O)[nH]c3ccccc23)cc1C	18.5
Nc1cc(=O)nc(SCC(=O)NCc2ccccc2)n1CCc1ccccc1	-5.55
Cc1ccc(NCc2n[nH]c(=S)n2-c2ccccc2)cc1	15
NC(=O)c1ccc(NCC2CCCO2)c([N+](=O)[O-])c1 (centres unmarked)	12.7
CC(C)(C)C(=O)Nc1ccccc1C(=O)Nc1ccccn1	3.65
COc1ccccc1N1CCN(C(=O)C2CCN(C(=O)c3ccccc3C)CC2)CC1	11.8
CC(C)N1CCN(Cc2cc3ccccc3[nH]2)CC1CCO (centres unmarked)	6.72
C=C(C)COc1ccc(-c2ncncc2-c2ccccc2)c(O)c1	0.141
CCC(C)NC(=O)[C@H]1N2C(=O)c3ccccc3C2SC1(C)C (some centres unmarked)	12.8
CCCCn1c(SCC(=O)NCCOC)nc2ccc(N3CCOCC3)cc2c1=O	-2.94
C=CCn1cccc(C(=O)Nc2cc(OC)ccc2OC)c1=O	1.46
COc1ccc(F)cc1S(=O)(=O)Nc1ccc2c(c1)OCCO2	1.97
O=C(O)CCSCc1ccccc1F	11.4
CCCCN(C(=O)c1ccc(N(C)S(=O)(=O)c2ccc(C)cc2)cc1)c1c(N)n(CCCC)c(=O)[nH]c1=O	0.667
CCOc1ccccc1Nc1nc(N)nc(CSc2nncn2C)n1	11.1
OCCOCC#CCN1CCOCC1	4.12
Cc1ccc(N(CC(=O)N/N=C/c2cc(C)n(-c3ccccc3)c2C)S(C)(=O)=O)c(C)c1	1.03
Cc1cc(-c2c(C)[nH]n(-c3ccccc3)c2=O)n[nH]1	4.25
O=C(COC(=O)/C=C/c1ccc(Cl)cc1)NC1CCCCCC1	-1.22
CCN(CC)c1ccc(NC(=O)Nc2ccc(C(C)=O)cc2)cc1	9.41

SMILES	hERG current change (%, negative = inhibition) at 10uM [%]
CNC(=S)Nc1cccc2[nH]ncc12	-1.27
Cc1c(C(=O)OCC(=O)N2c3ccccc3CC2C)oc2ccccc12 (centres unmarked)	16.5
CCCCOc1ccc(C(=O)OCC(=O)Nc2cc(C)on2)cc1	9.82
C/C(=N/NC(=O)CNC(=O)Cc1ccccc1)c1ccco1	0.676
Cc1ccc(C)c(N(CC(=O)N/N=C/c2ccc(-c3ccc([N+](=O)[O-])cc3)o2)S(=O)(=O)c2ccccc2)c1	11.5
COc1cccc(C(CNC(=O)C(c2ccccc2)c2ccccc2)N(C)C)c1 (centres unmarked)	18.7
Cc1ccc(OC(=O)c2ccc([N+](=O)[O-])cc2Cl)cn1	7.37
COc1ccccc1NC(=O)Nc1nc(CC(=O)NCc2ccc(F)cc2)cs1	-11.4
COc1ccc(/C(C)=N\NC(=O)C(c2ccncc2)N2CCOCC2)cc1 (centres unmarked)	19.1
O=C(COC(=O)c1ccc(O)cc1)Nc1ccccc1	22.4
Cn1c2ccccc2c(=O)c2cc(C#Cc3ccc(N)cc3)ccc21	11.9
CCOC(=O)c1sc(N(Cc2ccccc2)C(=O)COC(=O)c2ccccc2O)nc1C	-5.14
CC(=O)NC(CC(=O)N(C)C1CCCCC1)c1ccccc1 (centres unmarked)	11.2
CC(=O)c1ccc(N(C)C)c2c(N(C)C)cccc12	-36.6
O=C(NCc1ccco1)C1Cc2ccccc2CN1S(=O)(=O)c1ccccc1F (centres unmarked)	-16.4
Fc1ccc(C2=CCN(C(c3ccc(Cl)cc3)c3nnnn3Cc3ccccc3)CC2)cc1 (centres unmarked)	9.9
CCCCn1c(N)c(N(CC(C)C)C(=O)CSc2ccc3c(c2)OCCO3)c(=O)[nH]c1=O	9.84
O=C(NCCc1ccc2c(c1)OCCO2)c1ccccc1F	-10.9
CC(C)(C)NC(=O)c1cccc(NC(=O)Cc2cccs2)c1	-16.7
CC(=O)c1cccc(Nc2nc3ccccc3n3cnnc23)c1	-2.98
COC(=O)Cn1cc(S(=O)(=O)NCc2ccc(C)cc2)c2cc([N+](=O)[O-])ccc21	6.6
N#C/C(=C\c1ccc(N2CCOCC2)cc1)c1ccccc1	8.16
CCOC(=O)C1CCN(C(=O)c2cccc(NS(=O)(=O)c3ccc(Br)cc3)c2)CC1	-39.9

SMILES	hERG current change (%, negative = inhibition) at 10uM [%]
O=C(Cc1ccc(Cl)cc1)NNC(=S)NC(=O)c1cccnc1	21.4
Cc1c(OCc2ccc(C(=O)O)cc2)ccc2c(-c3ccccc3)cc(=O)oc12	36.8
C=CCn1c(O)c(C=NCCN(C)C)c(=O)[nH]c1=O	6.15
O=C(Nc1ccc(Nc2ccccc2)cc1)c1ccc(Cl)c([N+](=O)[O-])c1	10.4
COc1cc2ccccc2cc1-c1nnc(COc2ccccc2)o1	12
CC(C)C(=O)Nc1cccc(NC(=S)NC(=O)c2ccc([N+](=O)[O-])cc2)c1	4.65
Cc1ccc(NC(=O)COC(=O)C(NS(=O)(=O)c2ccc(Cl)cc2)C(C)O)cc1 (centres unmarked)	-24.3
CC(=O)Nc1ccccc1C(=O)OCc1ccc(F)cc1	-0.689
CCCN1CCC(NC(=O)CC2C(=O)NCCN2Cc2ccccc2C)CC1 (centres unmarked)	-2.03
O=C(COC(=O)c1ccc(NS(=O)(=O)c2ccc3c(c2)OCCO3)cc1)NC1CCS(=O)(=O)C1 (centres unmarked)	13.9
CN(C)CCCN(C(=O)c1ccc(S(=O)(=O)N2CCc3ccccc32)cc1)c1nc2ccc(F)cc2s1.Cl	-13.7
CC(C)Cc1ccc(C(C)NC(=O)c2ccc(=O)[nH]c2)cc1 (centres unmarked)	-5.61
COc1ccc(N2CCN(c3nc4ccccc4n3CC(=O)c3ccccc3)CC2)cc1	-33.4
CCCc1cc(N2CCCC(C(=O)Nc3cc(Cl)ccc3OC)C2)n2ncnc2n1 (centres unmarked)	-70.8
COc1cccc(OCC(=O)NNC(=O)CCc2ccccc2)c1	22.6
CN(C(=O)c1cccc(NC(=O)c2ccco2)c1)c1ccccc1	13.3
CC(=O)Nc1ccc(NC(=O)c2cccc(C(=O)OC(C)C)n2)cc1	14
CC(C)(C)CN1CCNC(=O)C1CC(=O)N1CCC(C(=O)N2CCOCC2)CC1 (centres unmarked)	2.07
O=C(c1cnsn1)N1CCC(CO)(Cc2ccc(Cl)cc2)CC1	-43.7
CN1C(=S)SC(N(O)C(=O)NC2CCCCC2)C1(C)C (centres unmarked)	-4.99
Cc1cccc(-c2nnc(-c3ccc(N)cc3)o2)c1	-1.87
Nc1nc(SCC(=O)NCCOCCO)nc2sc3c(c12)CCCC3	4.85
C[C@H](NC(=O)c1nc[nH]c1C(=O)NCCCCCNC(=O)OC(C)(C)C)C(=O)OC(C)(C)C	4.68

SMILES	hERG current change (%, negative = inhibition) at 10uM [%]
Clc1ccc(CON/C=N/c2ncnc3sccc23)c(Cl)c1	6.25
COc1cc2c(cc1NC(=S)NC(=O)c1c(OC)cccc1OC)oc1ccccc12	29.3
COc1cc(OC)c(C2=NOC(C(=O)O)C2)cc1Cl (centres unmarked)	5.14
O=S(=O)(c1ccc(-c2ccon2)s1)N1CCCC1	-6.08
O=C(NCCc1ccc(Cl)cc1)C1CC(=O)N(CCc2ccccc2)C1 (centres unmarked)	-62
CC(=O)N1CCN(Cc2nc3cc(NC(=O)COc4cccc(C)c4)ccc3n2C)CC1.Cl	-15.3
O=c1cc(CSc2nnnn2-c2ccc(O)cc2)nc2sccn12	-1.78
COC(=O)c1ccc(C2c3c(oc4ccccc4c3=O)C(=O)N2CCCN2CCOCC2)cc1 (centres unmarked)	-5.45
COC(=O)c1sccc1NC(=O)c1ccccc1C(=O)O	15.5
COc1ccc(C2c3[nH]c4ccccc4c3CCN2C(=O)Cc2nonc2C)c(F)c1 (centres unmarked)	16.5
COc1ccc(-c2csc(NC(=O)c3ccccc3F)n2)cc1	5.36
CCOC(=O)C1CCN(c2ccc(-c3cccs3)nn2)CC1	-12.5
CCOc1ccc(CNc2ccc(CNc3ncn[nH]3)cc2)cc1	12.9
COc1ccc(-c2nc3ccccn3c2Cl)cc1	10.9
CC(C)NC(=S)N=Nc1c(O)[nH]c2ccc(C(C)C)cc12	12.3
CC1Cc2ccccc2N1C(=O)CN1CCC(n2nnc3cc(C(F)(F)F)ccc32)CC1 (centres unmarked)	-67.2
CCOC(=O)C1=C(COC(=O)c2cccnc2Cl)NC(=O)NC1C (centres unmarked)	6.19
Br.CC(C)c1nnc2n1N=C(c1ccc(Cl)cc1)CS2	3.75
Cc1cc(NC(=O)c2ccc(Cl)c([N+](=O)[O-])c2)no1	11.2
Cc1ccccc1-n1nc(C)c2cc(C(=O)N3CCN(S(=O)(=O)c4ccc(Cl)cc4)CC3)sc21	4.46
